# Experimental data reported in PubChem BioAssay AID1030 (National Center for Advancing Translational Sciences (NCATS), 2008).
# The campaign covered roughly 220,000 compounds. About 16,000 (7.3%) were called active. The inconclusive results got no clear call from the source; some entries with a clear call stand among them for comparison. Calls come from the whole dose curve; as a rule, active = well fitted inhibition curve with a large enough effect (not every such curve was filed as active); inconclusive = small, poorly fitted or top-dose-only effect, or another doubt; inactive = no such curve, though single readings can be large or run the other way. No potency is given beside an inconclusive call; the fits are too rough.
# Molecular target: Aldehyde dehydrogenase 1A1 (Homo sapiens) (UniProt P00352)
# UniProt P00352, sequence (P00352 whole entry, looked up): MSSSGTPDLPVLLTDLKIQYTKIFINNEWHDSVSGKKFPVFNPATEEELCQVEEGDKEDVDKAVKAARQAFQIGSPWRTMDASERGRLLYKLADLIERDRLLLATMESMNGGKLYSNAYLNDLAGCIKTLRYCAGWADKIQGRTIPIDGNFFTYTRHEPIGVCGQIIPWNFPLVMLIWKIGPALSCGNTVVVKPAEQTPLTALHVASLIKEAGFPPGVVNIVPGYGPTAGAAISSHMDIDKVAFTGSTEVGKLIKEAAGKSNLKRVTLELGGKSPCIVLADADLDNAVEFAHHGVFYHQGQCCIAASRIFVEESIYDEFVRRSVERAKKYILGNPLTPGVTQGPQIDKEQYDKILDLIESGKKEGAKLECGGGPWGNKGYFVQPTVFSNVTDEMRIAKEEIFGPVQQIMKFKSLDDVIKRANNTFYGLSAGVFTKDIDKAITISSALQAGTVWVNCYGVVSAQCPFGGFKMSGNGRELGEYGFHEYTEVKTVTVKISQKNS
# Test: qHTS Assay for Inhibitors of Aldehyde Dehydrogenase 1 (ALDH1A1)
# Settings: Purified ALDH1A1, NADH fluorescence, propionaldehyde substrate; series mostly up to 75.3 µM
# Potency is the fitted concentration of half-maximal effect; tags give direction and shape of the fitted curve.
row,Structure (SMILES),Potency
1,COc1ccc(N)cc1-n1c(C)ccc1C,active: 14.1 µM
2,CC(C)Oc1cccc(-n2c(CCc3c[nH]c4ccc(Br)cc34)nc3ccccc3c2=O)c1,inactive
3,COC(=O)c1ccc2c(=O)[nH]c(CSc3nnc(C(F)(F)F)n3C)nc2c1,inactive
4,OC(CCN1CCOCC1)(c1ccc(Cl)cc1)C1CCCCC1 (stereo not drawn),active: 7.08 µM
5,CN(c1ccc([N+](=O)[O-])cc1C(N)=O)C1CCCCC1,"inconclusive [inhibitor, single point]"
6,O=C(Nc1ccc(O)c(C(=O)O)c1)Oc1ccccc1,"inconclusive [inhibitor, partial curve]"
7,COC(=O)CN1C(=S)N(c2ccc(Cl)cc2)C(=O)C1CC(=O)Nc1ccc(F)cc1 (stereo not drawn),"inconclusive [inhibitor, full curve]"
8,Cc1cccc(N/N=C2/COC(C)(C)CC2=O)c1,"inconclusive [inhibitor, single point]"
9,Cc1ccc(NC(=S)NNC(=O)CSc2nnc(-c3ccc(Cl)cc3)n2C2CCCCC2)cc1,"inconclusive [inhibitor, single point]"
10,COc1ccccc1NS(=O)(=O)c1cccc(C(=O)NN)c1,active: 3.98 µM
11,CCOC(=O)N1CCN(C(=S)Nc2cccc(C)c2)CC1,inactive
12,CCOC(=O)C1CSc2[nH]c(=O)sc2C1c1ccccc1 (stereo not drawn),active: 28.2 µM
13,CC1CN(C(=O)c2ccc(COCC(F)(F)F)o2)CC(C)O1 (stereo not drawn),"inconclusive [inhibitor, single point]"
14,COc1ccc(/C=N/NC(=O)c2cc(O)c(O)c(O)c2)cc1Cn1cc([N+](=O)[O-])cn1,"inconclusive [inhibitor, single point]"
15,C/C(=N\NC(=O)C(=O)Nc1cccc(Cl)c1C)c1ccncc1,inactive
16,COc1ccc(/C=C2\CCC(C3CCCC3)C2=O)cc1Cn1cccn1 (stereo not drawn),"inconclusive [inhibitor, partial curve]"
17,C/C=N/NC(=O)c1cc(Br)ccc1O,inactive
18,COc1cc(OC)cc(C(=O)N(Cc2cc3cc(C)ccc3[nH]c2=O)C(C)C)c1,"inconclusive [inhibitor, single point]"
19,[O-]/[N+](=C\c1cccc(Br)c1)c1ccccc1,active: 0.316 µM
20,Cc1cccc(NC(=O)CSc2nnc(-c3cc(C)n(-c4ccccc4)c3C)o2)c1C,"inconclusive [inhibitor, single point]"
21,CCOC(=O)Cc1nnc(NC(=O)CSc2nnc3c(n2)[nH]c2ccccc23)s1,inactive
22,COc1cccc(NC(=O)CSc2nncn2-c2ccccn2)c1,"inconclusive [inhibitor, single point]"
23,COCCn1c(=O)c(-c2cccs2)nc2cnc(Oc3ccccc3)nc21,"inconclusive [inhibitor, partial curve]"
24,Cc1c2cccn2cc[n+]1C,"inconclusive [inhibitor, single point]"

row,Structure (SMILES),Potency
1,Cc1cc(C)nc(NS(=O)(=O)c2ccc(NC(=O)c3ccc4c(c3)OCCO4)cc2)n1,active: 25.1 µM
2,Cc1nc(N2CCOCC2)c2nc(-c3ccccc3)n(CCCN(C)C)c2n1,"inconclusive [inhibitor, partial curve]"
3,COc1ccc(CNC(=O)COC(=O)C2=COCCO2)cc1,"inconclusive [inhibitor, single point]"
4,CC(C)CC(=O)c1c[nH]c(C(=O)NCC2CCCO2)c1 (stereo not drawn),"inconclusive [inhibitor, single point]"
5,O=C1CC(c2cccc(F)c2)SC(N(c2ccccc2)c2ccccc2)=N1 (stereo not drawn),inactive
6,Cc1cc(/C=C(\C#N)C(=O)OCC(=O)Nc2ccc(OC(F)F)cc2)c(C)n1CC(C)C,"inconclusive [inhibitor, partial curve]"
7,COc1ccc(CCN(C)CCc2ccc(OC)c(OC)c2)cc1OC,inactive
8,CCc1ccc(-n2c(=O)c3c(C)c(C(=O)N(C)C)sc3n(CC(=O)NCc3ccco3)c2=O)cc1,inactive
9,COc1ccc(OC)c(N(CC(=O)Nc2cccnc2)S(C)(=O)=O)c1,inactive
10,COc1ccc(OCC(=O)Nc2cccc(C(=O)Nc3ccccc3C(=O)O)c2)cc1,active: 20 µM
11,COC(=O)c1cccc(N(C(=O)c2ccco2)C(C(=O)NC2CCCC2)c2ccco2)c1 (stereo not drawn),"inconclusive [inhibitor, single point]"
12,C=CCOc1ccc(C2C(C(=O)c3ccco3)=C(O)C(=O)N2CCCN(CC)CC)cc1 (stereo not drawn),"inconclusive [inhibitor, single point]"
13,Nc1ccccc1Nc1cccc(C(F)(F)F)c1,"inconclusive [inhibitor, full curve]"
14,CNC(=O)c1cc(Cl)c(OC)c(OC)c1,active: 22.4 µM
15,CN(C)S(=O)(=O)c1cccc(NC(=S)NN=C(Cc2ccccc2)Cc2ccccc2)c1,"inconclusive [inhibitor, single point]"
16,Cc1cc(C)c(NC(=O)c2cc3c(nc4sccn43)s2)c(C)c1,"inconclusive [inhibitor, single point]"
17,Cn1c(=O)oc2cc(S(=O)(=O)N3CCCC(C(=O)Nc4nccs4)C3)ccc21 (stereo not drawn),inactive
18,CN(C)C(=O)c1nc2ccccc2s1,inactive
19,NC(=O)N1CCC2(CC1)NC(=O)N(c1ccccc1)N2,active: 3.55 µM
20,COc1ccc(/C=C/C(=O)NC(=S)NNC(=O)c2cc(OC)c(OC)c(OC)c2)cc1OC,"inconclusive [inhibitor, partial curve, poor fit]"
21,CC1(CN2CCC(n3c(=O)[nH]c4ccccc43)CC2)OCc2ccccc2-n2cccc21 (stereo not drawn),inactive
22,CCN(CC)S(=O)(=O)c1cccc(-c2n[nH]c(=S)n2C)c1,inactive
23,COc1ccc(-c2ccc(C(c3c(C)[nH][nH]c3=O)c3c(C)[nH][nH]c3=O)o2)c([N+](=O)[O-])c1,active: 10 µM
24,COC(=O)c1ccc(C2/C(=C(/O)c3ccc(OC)cc3)C(=O)C(=O)N2c2cc(C)on2)cc1 (stereo not drawn),active: 12.6 µM
